In this assay the test system is NCI-H322M lung. In words: growth of human tumour cells (NCI), 48 h.

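Assay format: 96-well plates, 48-hour exposure. GI50 marks 50% less growth. Definition used: TGI = concentration required for complete inhibition of growth.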

Turning to `Nc1cc(-c2c[nH]c3ccc(F)cc23)nc2cc(-c3c[nH]c4ccc(F)cc34)nn12`, the GI50 was 2090 nM and the TGI was determined as 5.08 µM.

Take `N#Cc1cnc2ccc(-c3cnc(N)nc3)cc2c1N1CCc2cc(F)c(Cl)cc21`: the GI50 was 750 nM and the TGI came to 9.32 µM.

Take `COc1ccc(CC(C)=C(c2ccc(OCCN3CCCC3)cc2)c2ccc(OCCN3CCCC3)cc2)cc1`: the GI50 is 3590 nM and the TGI worked out at 6.77 µM.

Consider `O=C(NNc1nc2cc(F)ccc2n2c(CN3CCCC3)ccc12)c1cnccn1`, for which the GI50 was 870 nM and the TGI was 17.8 µM.

The record behind these values is PubChem BioAssay (NCI).
